Experimental data reported in the supplement of paper PMC7826260.
The other results are listed elsewhere or left out. Viral Rep nickase domains cut single-stranded DNA in vitro at 3 µM enzyme and 37 °C for 1 h; the strands have 90 letters, of which the middle is given. A value is the log2 ratio of uncut reads to the pool without enzyme; uncut sequences lie near 0, cut ones below; no hit call is given. Because reads are shares of a total, they shift together, so uncut sequences can rise above 0 when many others are cut.

Tests used:
Experiment in all cases: uncleaved DNA left, log2 of reads against the no-enzyme library (log2 ratio); higher = less cleavage (more negative = more Rep cleavage of the k-mer); sequences stand for … in CTCGTCCG…ACCGGAGA
[1] = test system: T1, Rep nickase domain of Muscovy duck circovirus
T1 sequence (protein, residues 1-111, tag omitted): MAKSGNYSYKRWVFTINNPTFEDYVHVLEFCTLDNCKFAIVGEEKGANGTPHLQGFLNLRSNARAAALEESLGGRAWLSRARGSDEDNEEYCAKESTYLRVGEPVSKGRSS
Protocol: (§1)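 A pool of 90-nt single-stranded DNAs with seven random bases just before the constant AC of the nick site (name = the seven bases) was cut by 3 µM recombinant His6-SUMO-tagged Rep nickase domain (300 nM DNA, 50 mM HEPES pH 8.0, 50 mM NaCl, 1 mM MnCl2, 1 h, 37 °C, three replicates). Uncut DNA was amplified and sequenced.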

[2] = test system: T2, Rep nickase domain of banana bunchy top virus
T2 sequence (protein, residues 1-94, tag omitted): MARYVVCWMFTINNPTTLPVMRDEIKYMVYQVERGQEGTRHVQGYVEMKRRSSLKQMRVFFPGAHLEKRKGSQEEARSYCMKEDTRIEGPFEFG
Protocol: as §1

[3] = test system: T3, Rep nickase domain of cabbage leaf curl virus
T3 sequence (protein, residues 1-116, tag omitted): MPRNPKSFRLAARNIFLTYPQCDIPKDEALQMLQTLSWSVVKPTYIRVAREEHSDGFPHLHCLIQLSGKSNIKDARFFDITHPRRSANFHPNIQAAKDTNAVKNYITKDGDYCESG
Protocol: as §1

[4] = test system: T4, Rep nickase domain of chickpea chlorotic dwarf virus
T4 sequence (protein, residues 1-124, tag omitted): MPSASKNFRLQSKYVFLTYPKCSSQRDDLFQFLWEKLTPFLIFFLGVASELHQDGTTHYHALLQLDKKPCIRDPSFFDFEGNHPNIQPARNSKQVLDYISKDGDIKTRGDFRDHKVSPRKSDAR
Protocol: as §1

[5] = test system: T5, Rep nickase domain of faba bean necrotic yellows virus
T5 sequence (protein, residues 1-98, tag omitted): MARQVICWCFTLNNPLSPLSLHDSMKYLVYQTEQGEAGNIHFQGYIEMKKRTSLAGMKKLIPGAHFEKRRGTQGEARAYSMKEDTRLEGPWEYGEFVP
Protocol: as §1

[6] = test system: T6, Rep nickase domain of maize striate mosaic virus
T6 sequence (protein, residues 1-117, tag omitted): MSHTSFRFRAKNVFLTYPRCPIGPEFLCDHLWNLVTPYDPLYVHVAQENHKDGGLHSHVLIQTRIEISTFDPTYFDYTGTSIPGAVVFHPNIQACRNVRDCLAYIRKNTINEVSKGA
Protocol: as §1

[7] = test system: T7, Rep nickase domain of porcine circovirus 2
T7 sequence (protein, residues 2-116, tag omitted): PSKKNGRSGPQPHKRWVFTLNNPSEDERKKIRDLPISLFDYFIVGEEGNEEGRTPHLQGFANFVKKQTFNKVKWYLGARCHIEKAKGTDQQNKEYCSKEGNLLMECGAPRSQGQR
Protocol: as §1

[8] = test system: T8, Rep nickase domain of tomato golden mosaic virus
T8 sequence (protein, residues 1-124, tag omitted): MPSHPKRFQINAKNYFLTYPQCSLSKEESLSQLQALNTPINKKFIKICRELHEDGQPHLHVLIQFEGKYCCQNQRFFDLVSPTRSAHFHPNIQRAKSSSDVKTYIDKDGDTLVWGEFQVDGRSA
Protocol: as §1

[9] = test system: T9, Rep nickase domain of tomato yellow leaf curl virus
T9 sequence (protein, residues 1-136, tag omitted): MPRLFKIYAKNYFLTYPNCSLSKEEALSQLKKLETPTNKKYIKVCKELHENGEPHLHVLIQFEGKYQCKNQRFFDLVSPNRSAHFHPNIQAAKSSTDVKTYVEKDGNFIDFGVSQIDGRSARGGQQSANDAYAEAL
Protocol: as §1

[10] = test system: T10, Rep nickase domain of wheat dwarf virus
T10 sequence (protein, residues 1-137, tag omitted): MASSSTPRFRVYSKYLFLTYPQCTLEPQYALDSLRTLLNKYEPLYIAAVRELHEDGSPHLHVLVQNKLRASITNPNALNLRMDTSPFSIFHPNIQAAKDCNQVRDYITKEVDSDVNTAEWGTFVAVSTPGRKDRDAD
Protocol: as §1

| Sequence | uncleaved DNA left (log2) [1] | uncleaved DNA left (log2) [2] | uncleaved DNA left (log2) [3] | uncleaved DNA left (log2) [4] | uncleaved DNA left (log2) [5] | uncleaved DNA left (log2) [6] | uncleaved DNA left (log2) [7] | uncleaved DNA left (log2) [8] | uncleaved DNA left (log2) [9] | uncleaved DNA left (log2) [10] |
| --- | --- | --- | --- | --- | --- | --- | --- | --- | --- | --- |
| GCCCTAA | -0.0935 | 0.0708 | 0.155 | 0.45 | -0.0653 | 0.434 | -0.00212 | 0.0379 | 0.0354 | 0.0255 |
| CTCCTCG | 0.1 | 0.0896 | -0.678 | -0.0813 | 0.0319 | -0.809 | 0.209 | -0.00953 | -0.104 | 0.0715 |
| TTAGCGT | 0.0149 | -0.0161 | -0.832 | -0.674 | 0.0525 | -1.12 | 0.119 | -0.0271 | 0.0165 | -0.204 |
| CTTGCAG | -0.0543 | 0.06 | -0.843 | -0.348 | 0.0609 | -1.05 | 0.253 | -0.0395 | 0.115 | -0.0513 |
| GCTCCCT | 0.0546 | 0.11 | 0.136 | -0.665 | 0.0648 | 0.309 | -0.511 | 0.0214 | 0.0626 | 0.135 |
| ACTAGAA | 0.0702 | -0.0199 | -0.0541 | 0.114 | 0.0755 | -0.723 | 0.0574 | 0.178 | -0.0294 | 0.0992 |
| ATTCCTT | -0.575 | -0.407 | -0.0392 | -2.39 | 0.0698 | -0.475 | -2.29 | 0.0194 | -0.0661 | -0.0666 |
| GCACGAA | -0.00116 | -0.00428 | -0.157 | 0.162 | -0.0416 | -0.469 | 0.0285 | 0.0483 | 0.0218 | -0.1 |
| ACAGCTA | -0.168 | -0.0612 | -0.355 | -1.37 | -0.00109 | -0.836 | -0.0565 | 0.0971 | -0.0254 | -0.00812 |
| CCGATAC | -0.088 | -0.0948 | -0.0463 | -0.39 | -0.078 | -0.768 | 0.0631 | -0.0289 | -0.188 | -0.163 |
| CCGTCTA | -0.235 | -0.0522 | 0.0381 | -0.732 | -0.0501 | -0.137 | -0.175 | 0.0448 | -0.0285 | -0.101 |
| CGACCGG | -0.0527 | -1.18e-05 | 0.0945 | 0.449 | -0.0394 | 0.131 | 0.123 | 0.041 | -0.0087 | 0.0639 |
| TGCCTCA | -0.036 | -0.103 | 0.0828 | -0.441 | -0.0407 | 0.149 | -0.105 | 0.000875 | -0.0224 | -0.00204 |
| GTAGTAC | -0.0605 | 0.0546 | 0.307 | 0.774 | -0.00727 | 1.63 | -0.619 | 0.048 | 0.0988 | 0.0193 |
